The values below come from the supplement of paper PMC11417369.

This is one part of the list.

This experiment deals with PF3D7_0420300 AP2 domain 1 (GST-tagged). In words: gcPBM binding intensity (ln(normalized median fluorescence intensity)); higher = stronger DNA binding. In outline:
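Binding intensity is the highest Masliner-normalised natural-log median intensity over replicate spots in either probe orientation. To obtain it, GST-tagged P. falciparum DNA-binding domains made in E. coli were incubated for 1 h on an Agilent 4 × 180k array of primer-extended double-stranded 36-bp intergenic genomic probes plus negative controls. Detection used Alexa488 anti-GST antibody with scanning at 488 nm.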
With “TGAATTTAGATATATACACACAAAAGTATATACAAT [CACACA_site2804]”, the “gcPBM binding intensity (ln)” value was determined as 9.6.
On to “TATATGTTTTATAGTACACACATAAATGGACATACT [CACACA_site2191]”, for which the “gcPBM binding intensity (ln)” value came out at 9.58.
On to “CCCACTAAAAAACACACACACACACCCATATATATA [CACACA_site6140]”, for which the “gcPBM binding intensity (ln)” value came out at 10.2.
Take “ATATGTATTAAGTGTACACATATAATCTATCTTGTT [CACACA_site5329]”: the “gcPBM binding intensity (ln)” value was 9.37.
The same measure for “TTTTTTTTATATAGTAGTACTAATTAGAATTTTTAT [XGTACX_site7476]”: 9.06; for “ACTAAACGAATAAATTGTACAAAGAAATATATTCAT [XGTACX_site6766]”: 9.24.
The same measure for “CAACAAAAGTTATTTACACACAAAAGGCAAGGAAAT [CACACA_site7013]”: 10; for “ACTACGTGGATTAGTTCAAGGGAACACGTCCTATAC [CACACA_negctrl_site1427]”: 8.99.
As to “AAAGGAAATAAAAACGCACACAGAAATAATATCTAT [CACACA_site457]”, the “gcPBM binding intensity (ln)” value worked out at 9.97.
With “TAAAAAATTACATATTGTACAGGCAAAATTACACAT [XGTACX_site1152]”, the “gcPBM binding intensity (ln)” value was determined as 9.5.
The same measure for “ATATTTCATTTTTGTACACACAACGTTGGAGGGTTT [CACACA_site3043]”: 9.65; for “TCATATAAATACACGTGTACATATATATATTACAGT [XGTACX_site1954]”: 9.32; for “AAAAAATATATATGCACACACAAAAAAACAAATTAA [CACACA_site1278]”: 9.94.
Turning to “AATATAAAAAATAGTTGTACTATATTTAAATATGAC [XGTACX_site2937]”, the “gcPBM binding intensity (ln)” value was determined as 9.31.
For the sequence AGTTTGCATATGGAAGTGCATTACCTTGAACATCAT, the “gcPBM binding intensity (ln)” value turned out to be 9.12.
Take “AACTCATAAAATAATGGTACACAAAAAAAATAAATA [XGTACX_site7648]”: the “gcPBM binding intensity (ln)” value was 9.5.
In the case of “TTTTTTTTTTTCTTTTGTACGTATAAAATTATATAA [XGTACX_site2453]”, the “gcPBM binding intensity (ln)” value came out at 9.1.
The result for “CAAGGAACCAGACACACACACATAAATGTATTTATA [CACACA_site6491]” reads 9.82; that for “TTAGGCAAGGCGGGGGGTACGTTTTTATATAATTAT [XGTACX_site8029]”, 10.6; that for “TTAGATTTATAAGTGTGTACGTAAAATACTTAATAA [XGTACX_site8246]”, 9.09.
On to “TTTATGGAATAATCACGTACACACAAGAAAAAAAAA [XGTACX_site985]”, for which the “gcPBM binding intensity (ln)” value was determined as 9.83.
As for “TGTGTGTGCTTATTTTGTACATATTAGGTAAATATT [XGTACX_site6329]”, the “gcPBM binding intensity (ln)” value came to 9.67.
“TTTTTATCTAATCTAATATTATATTATACATATAAT [XGTACX_negctrl_site275]”: the “gcPBM binding intensity (ln)” value was 9.12.
On to “ATATCTATAATAAATACACACATTTATATAGATAAA [CACACA_site7518]”, for which the “gcPBM binding intensity (ln)” value turned out to be 9.34.
Turning to “AACAGCATTATTTCTTATTTTTTTTTTGATATATTT [GTGCAC_negctrl_site114]”, the “gcPBM binding intensity (ln)” value turned out to be 9.47.
Consider “GTTATATTATTCATACGTACCTATATTTCTATTAAC [XGTACX_site3447]”, for which the “gcPBM binding intensity (ln)” value stood at 9.59.
The same measure for “ATGTGTTGGGAAAAGGCATGCACTTTTTTTTTTTTT [TGCATGCA_site707]”: 9.36; for “TTTTCCTTATATTATGCATGCAGGGTTTGACATTAT [TGCATGCA_site826]”: 9.25.
The same measure for “TGATAACCTCACAAATGTACGTACGGGGCTAGCATT [XGTACX_site4157]”: 9.28; for “AAAAAAAAAAAATAGACACACATATTATATATATAT [CACACA_site1419]”: 9.54.
“TATTATTCTATACATTGTACATATTTTATAGTATGT [XGTACX_site73]”: the “gcPBM binding intensity (ln)” value came out at 9.3.
Take “TTTAAAACCTTACATACACACAAATATGTAAATATA [CACACA_site6464]”: the “gcPBM binding intensity (ln)” value was found to be 9.43.
In the case of “TTCATATAACCTTATAGTACATAATTAAAAATATAA [XGTACX_site6328]”, the “gcPBM binding intensity (ln)” value worked out at 8.94.
The result for “CACGCATATATACATACATGCATATATACATCCATG [TGCATGCA_site667]” reads 9.27; that for “AAAAAAAAAAAAAAAACACACATATAGGTATAAATA [CACACA_site7528]”, 9.55.
In the case of “CACAGACACGGACACACACACACACCCACATATATA [CACACA_site4355]”, the “gcPBM binding intensity (ln)” value is 10.3.
On to “ATATATTTTAAATATATTATTATTGCATTGTGAAAA [TGCATGCA_negctrl_site106]”, for which the “gcPBM binding intensity (ln)” value worked out at 8.94.
For the sequence “TCTTAAAAAATAGGGACACGTAAATATAATATATAA [CACACA_negctrl_site554]”, the “gcPBM binding intensity (ln)” value worked out at 9.4.
Regarding “AAAAAAAAAAAAAAAACACACATATATATATATATA [CACACA_site2436]”, the “gcPBM binding intensity (ln)” value was determined as 9.59.
“TATATATATATATATAGTACATATTAATTAATTTAT [XGTACX_site8198]”: the “gcPBM binding intensity (ln)” value was 9.1.
Consider “ACACATACTAAAATGTTGTGAAATATGATAATGTGA [CACACA_negctrl_site851]”, for which the “gcPBM binding intensity (ln)” value was 9.31.
The same measure for “TTATAATAATAGAACTTTATGTAGAAAAAAGGAAAA [XGTACX_negctrl_site116]”: 9.17; for “TTAAATAAGTAATTATGTACATATAATATTCTTTAT [XGTACX_site5280]”: 9.06; for “TATAGGAATATATGGTGTACCTATAAATCTGACATA [XGTACX_site8111]”: 9.17.
“ATTTATATATTTATACGTACTTATATATTGTTACAT [XGTACX_site6254]”: the “gcPBM binding intensity (ln)” value worked out at 9.7.
For the sequence “AAAAATAAAAATTGCACACTAAAAAATTACGCACGA [CACACA_site3418]”, the “gcPBM binding intensity (ln)” value was found to be 9.59.
The same measure for “TAGAAAATATAAAAATGTACGTAAATAAAATGTGCA [XGTACX_site3459]”: 9.56; for “TCTTAAGGAAAAGAGTGTACAGAAATTTTTATTAAC [XGTACX_site6139]”: 9.05.
Turning to “AATTATATTACAAACTGTACATATATAATTTGTCCA [XGTACX_site6009]”, the “gcPBM binding intensity (ln)” value worked out at 9.1.
Consider “ATCCGAGTGTGAAATACACACATGATAATGTGAATG [CACACA_site919]”, for which the “gcPBM binding intensity (ln)” value was found to be 9.4.
As for “TATAATGAGGATAATAGTACATATGAATACAAAAAA [XGTACX_site3665]”, the “gcPBM binding intensity (ln)” value was determined as 9.43.
For “TACACAAGCAGACACACACACATATAGATTTATATA [CACACA_site6715]”, the “gcPBM binding intensity (ln)” value was 9.9.
Take “GCCATAAAAATATATACACACATAAAAAAAAATTAT [CACACA_site1176]”: the “gcPBM binding intensity (ln)” value turned out to be 9.56.
Turning to “TTAATATTGTATTTCACACATAATTTAATATACTCA [CACACA_site5678]”, the “gcPBM binding intensity (ln)” value is 9.19.
“TATATATATAATATTACACACATATATTTATATTTT [CACACA_site3460]”: the “gcPBM binding intensity (ln)” value came out at 9.48.
As to “TATGGTATATACAACACACACACATATGTATAAATA [CACACA_site6562]”, the “gcPBM binding intensity (ln)” value is 9.91.
On to “ATTTATACATGCTAATGTACTTATTTCACCTATATC [XGTACX_site3120]”, for which the “gcPBM binding intensity (ln)” value was 9.26.
As to “CAAGTATTAATTATGTGTACATATATATATATATAT [XGTACX_site5311]”, the “gcPBM binding intensity (ln)” value amounted to 9.45.
As for “TATGTATTTATCCACTTACATTTTTACTTTTCCATT [CACACA_negctrl_site1141]”, the “gcPBM binding intensity (ln)” value is 9.51.
As for “ACATGAAATGTTTAAAGTACATATATAAATTTTTTT [XGTACX_site4519]”, the “gcPBM binding intensity (ln)” value amounted to 9.13.
The same measure for “ATATATAGATAATCAAGTACATAACAAGATATAAGA [XGTACX_site2186]”: 9.55.
Turning to “TACTGATCTTTCTAGGTGCGCTGCTACCATTATCGT [GTGCAC_site9538]”, the “gcPBM binding intensity (ln)” value amounted to 9.06.
Consider “AAATGTGAAGTGAATACACACCTAATAAATATAACA [CACACA_site5727]”, for which the “gcPBM binding intensity (ln)” value was 9.39.
For “TATATTTAATTATTATGTACTTATAATTTTTGAAAG [XGTACX_site8548]”, the “gcPBM binding intensity (ln)” value stood at 8.95.
In the case of “CTTTCCTATTTGACACGTACGAAATTTTACATAAAA [XGTACX_site6689]”, the “gcPBM binding intensity (ln)” value is 9.15.
Consider “AAATATATATACACATATATATATATATATATATAT [CACACA_negctrl_site1742]”, for which the “gcPBM binding intensity (ln)” value was 9.14.
As for “TATGAAATATCGTGCACACACGAATAATATAAGAAT [CACACA_site4842]”, the “gcPBM binding intensity (ln)” value amounted to 9.56.
On to “AAAATAAAAAATATAACACACAATAAATATTTATAT [CACACA_site6986]”, for which the “gcPBM binding intensity (ln)” value is 9.77.
The result for “TATTCCTAATTGACAACACACACAACAAAAAAGGGA [CACACA_site8350]” reads 9.94.
The result for “TATAAATAGAGACACACACACATATAAATAAATATT [CACACA_site7854]” reads 10.1; that for “TATATTTCTTCTATAACATGCAGATATATGAAAATA [TGCATGCA_site971]”, 8.91.
The same measure for “ATATATTTTTTGAATACACACATATTATCTGTAATA [CACACA_site4826]”: 9.49; for “CTATAATATGGTATTACACACTGTTATAAGTATGGC [CACACA_site7068]”: 9.48; for “AGAATTATTTTATGTTTGCACTTTTTTTTTCTATAA [GTGCAC_site9876]”: 9.51.
With “ATTATTAACATATATATACACACGAAAAAATTATAT [CACACA_site625]”, the “gcPBM binding intensity (ln)” value was found to be 9.73.
The result for “TAATGAAATATTATGTGTACTTAAAAATTATTAAAT [XGTACX_site5261]” reads 9.02; that for “ATTTTAGGAAAAAAAAGTACATATAATTTTTTATAT [XGTACX_site6954]”, 8.88; that for “TGTTTGCTTATGTGTTAAATATATATATATATATAT [TGCATGCA_negctrl_site218]”, 9.42.
The result for “CGAACACAAACACAAACACACATCAGATATAAATAT [CACACA_site6736]” reads 9.66; that for “TTTTTTTTGATATATACACACAATAAATAAATATAA [CACACA_site7400]”, 9.31; that for “ATTTATTATTATATCACACATAATATATTAAATGAT [CACACA_site5821]”, 9.09.
Take “TATGGAGAAATAAATAGTACGTATTTTATTTAAAAA [XGTACX_site3129]”: the “gcPBM binding intensity (ln)” value turned out to be 9.12.
With “AAAAATATAAAAATAGCACACATATATACATATATA [CACACA_site7901]”, the “gcPBM binding intensity (ln)” value was determined as 9.48.
Turning to “TTTCCTAGCACATGCACACAAAAAAAAAAAAAAAAA [CACACA_site1404]”, the “gcPBM binding intensity (ln)” value came out at 8.89.
The same measure for “ATGTTCGATGATAAATGTACAAAAATAATGGAAGTA [XGTACX_site1916]”: 9.43.
Regarding “TATAAAAATATTGAAAGTACTTATTAAAATATTATT [XGTACX_site3701]”, the “gcPBM binding intensity (ln)” value amounted to 9.1.
On to “CTTGCAAAAAGTATATGTACATATATATATATATAT [XGTACX_site5792]”, for which the “gcPBM binding intensity (ln)” value worked out at 9.19.
The result for “ATTGATACATCCAATACACACTACATATAATGATGT [CACACA_site8561]” reads 9.42.
